Experimental data taken from PubChem BioAssay AID1768 (National Center for Advancing Translational Sciences (NCATS), 2009).
In all, about 270,000 compounds went through this assay and about 620 (0.23%) were called active. This list was built around the results that the source calls inconclusive (neither active nor inactive); the mix of calls is not that of the screen. Calls follow the shape of the dose curve; as a rule, active = well fitted inhibition curve with a large enough effect in the polarisation, with a control signal flat (not every such curve was filed as active); inconclusive = small, poorly fitted or top-dose-only effect, or effect the other way, or a change in a side signal; inactive = no such curve, though single readings can be large or run the other way; the % refers to the polarisation. A potency beside an inconclusive call is a rough fit, not a confirmed value. “Side channel” marks fits to a control or component signal instead of the main read-out.

What follows are compounds tested against Menin (Homo sapiens) (UniProt O00255) (assay: qHTS Assay for Inhibitors Targeting the Menin-MLL Interaction in MLL Related Leukemias: Competition With Texas Red Labeled MLL-derived Mutant Peptide). Conditions: fluorescence polarization; FP activity change, negative = inhibition: at 61.6 µM (top of the series).
Chain of UniProt O00255 (O00255 whole entry, looked up): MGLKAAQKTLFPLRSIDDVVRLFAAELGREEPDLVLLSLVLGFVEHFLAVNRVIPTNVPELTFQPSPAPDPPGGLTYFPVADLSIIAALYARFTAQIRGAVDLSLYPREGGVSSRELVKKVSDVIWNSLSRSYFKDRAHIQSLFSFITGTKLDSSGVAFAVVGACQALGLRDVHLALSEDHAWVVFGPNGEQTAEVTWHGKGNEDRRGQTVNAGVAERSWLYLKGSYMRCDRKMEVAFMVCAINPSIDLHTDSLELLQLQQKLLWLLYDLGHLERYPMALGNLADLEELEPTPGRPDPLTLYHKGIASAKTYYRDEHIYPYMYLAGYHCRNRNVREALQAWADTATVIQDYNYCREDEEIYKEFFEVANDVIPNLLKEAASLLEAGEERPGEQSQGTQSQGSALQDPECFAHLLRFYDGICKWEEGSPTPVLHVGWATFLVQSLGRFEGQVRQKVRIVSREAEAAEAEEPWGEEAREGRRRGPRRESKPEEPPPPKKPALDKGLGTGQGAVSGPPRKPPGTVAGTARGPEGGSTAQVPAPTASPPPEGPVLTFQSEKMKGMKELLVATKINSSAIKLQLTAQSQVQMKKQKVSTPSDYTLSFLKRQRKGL

For FP activity change, negative = inhibition in this document: % of control where 0% means no effect.
Potency is read from the fitted curve at half-maximal effect; tags tell the direction and shape of the fitted curve or compound fluorescence and quenching.

Row | SMILES | Potency | FP activity change, negative = inhibition
1 | O=C(Nc1cccc2ccccc12)c1ccccc1NS(=O)(=O)c1cccc2cccnc12 | inconclusive: 28.2 µM [inhibitor, single point] | –
2 | COc1ccc(CCNC(=O)c2nn(C)c3c2CS(=O)(=O)c2ccccc2-3)cc1OC | inconclusive: 20 µM [fluorescent, side channel, partial curve] | –
3 | Cc1ccc(NC2=C/C(=N/S(=O)(=O)c3cccs3)c3ccccc3C2=O)cc1C | inconclusive: 31.6 µM [quencher, side channel, partial curve] | –
4 | COCCNC(=O)c1nn(-c2cc(OC)cc(OC)c2)c(=O)c2ccccc12 | inconclusive: 5.62 µM [inhibitor, partial curve] | –
5 | Cc1cc(O)c(C(=O)/C=C/c2ccc(C(C)C)cc2)c(=O)o1 | inconclusive: 31.6 µM [quencher, side channel, single point] | –
6 | O=C(NO)c1ccc(C(=O)N(C2CCCCC2)C2CCCCC2)cc1 | inconclusive: 25.1 µM [fluorescent, side channel, partial curve] | –
7 | COc1ccc(-c2cn(Cc3ccc4ccccc4c3)nn2)cc1 | inconclusive: 17.8 µM [fluorescent, side channel, partial curve] | –
8 | COc1ccc(C(CC(=O)N2CCCCC2)c2c(O)cc(OC)cc2OC)cc1 (configuration not stated) | inconclusive: 3.98 µM [inhibitor, full curve] | –
9 | O=C1C2ON(c3ccc(Cl)cc3)C(c3ccco3)C2C(=O)N1c1ccccc1 (configuration not stated) | inconclusive: 22.4 µM [quencher, side channel, single point] | –
10 | Cc1c(C)c2ccc(OCC(=O)Nc3ccc(S(N)(=O)=O)cc3)c(C)c2oc1=O | inconclusive: 39.8 µM [fluorescent, single point] | –
11 | COc1ccc(O)c(/C=N/NC(=O)c2ccc(CSc3nc(C)cc(C)n3)cc2)c1 | inconclusive: 6.31 µM [quencher, side channel, partial curve] | –
12 | CCCc1cc(=O)n2c(nc3ccccc32)[nH]1 | inactive | –
13 | COc1ccc(C(=O)O)cc1NC(=S)NC(=O)C(c1ccccc1)c1ccccc1 | inconclusive: 15.8 µM [quencher, side channel, partial curve] | –
14 | CC(C)(Oc1ccc(Br)cc1)C(=O)N1CCc2ccccc21 | inconclusive: 35.5 µM [fluorescent, side channel, single point] | –
15 | COc1cc2c(cc1OC)CN(C(=O)Nc1ccccc1Cl)CC2 | inactive | –
16 | Cc1ccc(C2CC(c3ccc(C)cc3)n3nc(N)nc3N2)cc1 (configuration not stated) | inconclusive: 39.8 µM [fluorescent, side channel, single point] | –
17 | CC(=O)N1CCN(c2ccccc2NC(=O)COc2ccc(Br)cc2)CC1 | inconclusive: 17.8 µM [fluorescent, side channel, single point] | –
18 | CCN(CC(=O)NCc1ccc(F)cc1)Cc1nc2cc(Cl)ccc2c(=O)[nH]1 | inactive | –
19 | CCOC(=O)C1=C(CN2CCCCC2)NC(=O)NC1c1cc(C)ccc1C (configuration not stated) | inconclusive: 15.8 µM [fluorescent, side channel, partial curve] | –

Row | SMILES | Potency | FP activity change, negative = inhibition
20 | Nc1ccccc1NC1=CC(=O)CC(c2ccco2)C1 (configuration not stated) | inconclusive: 12.6 µM [quencher, side channel, partial curve] | –
21 | COc1cc2c(cc1CC=C(C)C)C(=O)C[C@@H](c1ccc(O)cc1)O2 | inactive | –
22 | CCCCn1nc(C(=O)OCC(=O)Nc2sccc2C(N)=O)c2ccccc2c1=O | inconclusive: 39.8 µM [quencher, side channel, single point] | –
23 | Cc1ccc2nc3sc(C(=O)NCc4ccco4)c(N)c3cc2c1 | inconclusive: 22.4 µM [quencher, side channel, partial curve] | –
24 | Brc1ccc(CN2CCN(Cc3c[nH]c4ccccc34)CC2)cc1 | inconclusive: 22.4 µM [inhibitor, partial curve] | –
25 | COc1cccc(C2C3=C(CCCC3=O)NC3=C2C(=O)c2ccccc23)c1 (configuration not stated) | inconclusive: 3.16 µM [inhibitor, full curve, poor fit] | –
26 | Nc1ccc(N2CCCCC2)c2nonc12 | inconclusive: 28.2 µM [quencher, side channel, partial curve] | –
27 | COC(=O)c1ccc(NC(=O)CC(=O)Nc2ccc(C(=O)OC)cc2)cc1 | inconclusive: 39.8 µM [inhibitor, single point] | –
28 | COc1ccc(/C=N/NC(=O)c2cccc([N+](=O)[O-])c2)cc1OC(=O)c1ccc(C)cc1 | inconclusive: 8.91 µM [quencher, side channel, partial curve] | –
29 | COc1ccc(OC)c(-c2cn(S(=O)(=O)c3ccccc3)nc2N)c1 | inconclusive: 11.2 µM [quencher, side channel, partial curve] | –
30 | c1ccc(Cn2nnc3c(NCCN4CCOCC4)ncnc32)cc1 | inconclusive: 0.708 µM [inhibitor, full curve] | –
31 | CCN(c1ccc(OC)cc1)S(=O)(=O)c1nnc(NC(=O)c2ccco2)s1 | inconclusive: 14.1 µM [quencher, side channel, partial curve] | –
32 | CCCC[C@@H]1C[C@H]1[C@@H](NP(=O)(c1ccccc1)c1ccccc1)c1ccccc1OC | inactive | –
33 | CCC(=O)N/N=C/c1ccc(-c2ccc([N+](=O)[O-])cc2)o1 | inconclusive: 15.8 µM [quencher, side channel, partial curve] | –
34 | O=C(N/N=C/c1cn(-c2ccccc2)nc1-c1cccs1)c1ccncc1 | inconclusive: 28.2 µM [quencher, side channel, single point] | –
35 | COc1cccc(OCC(=O)NNC(=O)C(=O)Nc2ccc(OC)cc2OC)c1 | inconclusive: 3.55 µM [inhibitor, partial curve] | –
36 | C[C@@H](c1ccccc1)N1C(=O)[C@H]2[C@H]3[C@H](O)[C@H](O)C/C(=N/NC(=O)OCc4ccccc4)[C@@H]3CC[C@@H]2C1=O | – | inactive: -8.31% [at 11.7 µM]
37 | COc1cccc(/C=N/NC(=O)CNC(=O)C(c2ccccc2)c2ccccc2)c1O | inconclusive: 31.6 µM [quencher, side channel, single point] | –
